Source: PubChem BioAssay AID720542 (National Center for Advancing Translational Sciences (NCATS), 2013)
Screen size: about 360,000 compounds; about 740 (0.21%) were called active. This list was built around the results that the source calls inconclusive (neither active nor inactive); the mix of calls is not that of the screen. Calls come from the whole dose curve; as a rule, active = well fitted inhibition curve with a large enough effect; inconclusive = small, poorly fitted or top-dose-only effect; inactive = no such curve, though single readings can be large or run the other way. Potencies of inconclusive entries are left out as doubtful fits.

system: Plasmodium falciparum AMA1 (3D7) - RON2 peptide interaction; test: qHTS for Inhibitors of AMA1-RON; Towards Development of Antimalarial Drug Lead: Primary Screen; conditions: AlphaScreen AMA1-biotinylated RON2 peptide binding; activity change, negative = inhibition: at 58.2 µM (top of the series) unless noted; note: nearly all actives have a fitted effect of over 45% in size;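 for activity change, negative = inhibition: 0% = vehicle wells and -100% = peptide control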
In short: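 AMA1 (3D7) with his tag at 25 nM final met compounds first, then biotinylated RON2 peptide at 25 nM; detection used donor plus acceptor beads, 10 µg/mL apiece, read by AlphaScreen after 30 min at room temperature.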
Potency is the fitted concentration of half-maximal effect; tags give direction and shape of the fitted curve.

| SMILES | Potency | activity change, negative = inhibition |
| --- | --- | --- |
| O=C(CSc1nccc2ccccc12)N1CCN(Cc2ccc3c(c2)OCO3)CC1 | inconclusive [inhibitor, partial curve] | – |
| Fc1ccc(C2c3[nH]c4ccccc4c3CCN2CCCn2cccn2)cc1 (stereo not given) | inconclusive [inhibitor, partial curve] | – |
| COC(=O)N/N=C/c1ccc(OC(=O)/C=C/c2ccco2)cc1 | inconclusive [inhibitor, single point] | – |
| Cc1ccc(CN2CCN(/N=C\C(Br)=C\c3ccccc3)CC2)cc1 | inconclusive [inhibitor, partial curve] | – |
| O=C(CCN1C(=O)/C(=C/c2cccs2)SC1=S)N1CCCCC1 | inconclusive [inhibitor, partial curve] | – |
| CC1(C)CC(=O)C=C(c2cccc(OC(=O)c3ccc(-c4ccccc4)cc3)c2)C1=O | inconclusive [inhibitor, full curve] | – |
| Cc1cccc(N(CC(=O)O)CC(=O)O)c1 | inconclusive [inhibitor, partial curve] | – |
| COc1cccc(C2NC(=O)c3ccccc3O2)c1OCc1ccccc1F (stereo not given) | – | inactive: 7.25% |
| COc1ccccc1/C=C/C=N/N1CCN(Cc2ccccc2)CC1 | inconclusive [inhibitor, partial curve] | – |
| Cc1ccc(C(=O)NCC(c2ccco2)N2CCc3ccccc32)cc1C (stereo not given) | inconclusive [inhibitor, partial curve] | – |
| CC(C)(C)c1ccc(C(=O)N2CCC2(C)C(=O)NCc2cccs2)cc1 (stereo not given) | inconclusive [inhibitor, partial curve] | – |
| COc1ccccc1OCC(=O)Nc1cc(C(F)(F)F)ccc1-n1cncn1 | – | inactive: 1.96% |
| CCCc1nc2oc3ccccc3c(=O)c2c(=O)n1-c1ccc(C)cc1 | – | inactive: 12.3% |
| Cc1ccc(NNC(=S)Nc2ccc(C(C)C)cc2)c(C)c1 | inconclusive [inhibitor, single point] | – |
| c1coc(-c2ccc3nncn3c2)c1 | inconclusive [inhibitor, partial curve] | – |
| Clc1cccc(CSc2nnc(-c3sccc3-n3cccc3)o2)c1 | inconclusive [inhibitor, single point] | – |
| COc1ccc(NCC(O)Cn2c(C)c(C)c3ccccc32)cc1 (stereo not given) | inconclusive [inhibitor, partial curve] | – |
| COc1ccc(NC(=O)c2ccc(C)cc2)c(OC)c1 | inconclusive [inhibitor, partial curve] | – |
| COP(=O)(OC)C(NC(C)=O)C(Cl)(Cl)Cl (stereo not given) | inconclusive [inhibitor, single point] | – |
| N#Cc1cccc(NC(=O)N2CCC(c3nc4c(nnn4Cc4cccc(Cl)c4)c(=O)[nH]3)CC2)c1 | inconclusive [inhibitor, single point] | – |
| O=C(CCCN1C(=O)/C(=C/c2cccs2)SC1=S)Nc1cccc(O)c1 | inconclusive [inhibitor, partial curve] | – |
| Cc1ccccc1CS(=O)(=O)Cc1ccc(C(=O)NCCc2ccccc2)o1 | – | inactive: 10.2% |
| Cc1ccc(CSc2nnc(NC(=O)C3COc4ccccc4O3)s2)cc1 (stereo not given) | – | inactive: 61.6% |

| SMILES | Potency | activity change, negative = inhibition |
| --- | --- | --- |
| COc1ccccc1N1CCN(C2CCCN(Cc3c(F)cccc3F)C2)CC1 (stereo not given) | – | inactive: -5.27% |
| CCOC(=O)CCCCC(=O)c1[nH]c(=O)[nH]c1C[n+]1ccc(C)cc1 | inconclusive [inhibitor, partial curve] | – |
| CCCOc1cccc(C(=O)Nc2ccc(Br)cc2F)c1 | – | inactive: -23.4% |
| O=c1c2ccccc2n(Cc2ccc(F)cc2)c(=O)n1C1CCCC1 | – | inactive: -1.24% |
| CC(C)Oc1ccc(C(CC(=O)NCCCN(C)C)c2ccc(F)cc2)cc1 (stereo not given) | – | inactive: -4.81% [at 2.32 µM] |
| Cc1cc(NC(=O)c2noc3c2CCCC3)no1 | – | inactive: 6.15% |
| CCOC(=O)c1c(C)[nH]c(N=Nc2ccccc2)c1C | active: 12.6 µM | – |
| O=C1NC(=O)C(=Cc2ccco2)C(=O)N1 | inconclusive [inhibitor, single point] | – |
| COc1ccc(CCn2c(C)cc(C(=O)CN3C(=O)C(=O)N(Cc4ccco4)C3=O)c2C)cc1 | – | inactive: -4.3% |
| O=C(Nc1ccc2c(c1)[C@@H]1C[C@@H](CC(=O)N3CCOCC3)O[C@@H](CO)[C@@H]1O2)NC1CCCC1 | – | inactive: -5.58% |
| C/C(=N\N=C\c1ccc(N(C)C)cc1)c1cccc([N+](=O)[O-])c1 | inconclusive [inhibitor, full curve, poor fit] | – |
| CC(=O)c1ccc(NC(=O)c2noc(C(C)C)c2[N+](=O)[O-])cc1 | – | inactive: 0% |
| COCCNC(=O)c1ccccc1NC(=O)c1cccc([N+](=O)[O-])c1C | – | inactive: -2.8% |
| COCCNC(=S)N1CCc2cc(OC)c(OC)cc2C1COc1cc(C)cc(C)c1 (stereo not given) | inconclusive [inhibitor, full curve] | – |
| O=C(O)/C=C/C(=O)c1ccc(O)cc1 | – | inactive: 0.439% |
| O=C(Nc1ccn(CCCN(CCCn2ccc(NC(=O)OCc3ccccc3)nc2=O)CCc2cc3ccccc3[nH]2)c(=O)n1)OCc1ccccc1 | inconclusive [inhibitor, partial curve] | – |
| c1ccc(-c2cn(-c3ccccc3)c3ncnc(N4CCCCC4)c23)cc1 | inconclusive [inhibitor, partial curve] | – |
| C[C@@H](C(=O)NCCc1c[nH]c2ccccc12)[C@@H]1C[C@@]1(C)[C@@H](NC(=O)OCc1ccccc1)c1ccccc1 | – | inactive: -10.4% |
| Oc1ccc(/C=N/Nc2ccc(Cl)nn2)c(O)c1O | inconclusive [inhibitor, partial curve] | – |
| O=C1C=CC(=O)N1c1cccc2cccnc12 | inconclusive [inhibitor, single point] | – |
| Cc1ccc(CN2CCC(n3nccc3NC(=O)c3ccc4c(c3)OCO4)CC2)o1 | inconclusive [inhibitor, single point] | – |
| O=C1/C(=C/Nc2cccc([N+](=O)[O-])c2)CCc2ccccc21 | inconclusive [inhibitor, partial curve] | – |
